Each structure is given as a SMILES string. Among all 310,000 compounds or so, about 14,000 (4.5%) showed an effect of 50% or more. The effect is printed as a negative number. The list shows a part of the results.

The record followed here is article PMC4336329 (PLoS ONE, 2015).
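Note: peak tail current of the secondary pulse compared with the same well before compound.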

The target of the test is human ether-à-go-go-related gene (hERG) potassium channel (human, UniProt Q12809). The experiment in a line: primary screen, population patch clamp on CHO cells stably expressing hERG.
human ether-à-go-go-related gene (hERG) potassium channel, sequence (Q12809 whole entry, looked up): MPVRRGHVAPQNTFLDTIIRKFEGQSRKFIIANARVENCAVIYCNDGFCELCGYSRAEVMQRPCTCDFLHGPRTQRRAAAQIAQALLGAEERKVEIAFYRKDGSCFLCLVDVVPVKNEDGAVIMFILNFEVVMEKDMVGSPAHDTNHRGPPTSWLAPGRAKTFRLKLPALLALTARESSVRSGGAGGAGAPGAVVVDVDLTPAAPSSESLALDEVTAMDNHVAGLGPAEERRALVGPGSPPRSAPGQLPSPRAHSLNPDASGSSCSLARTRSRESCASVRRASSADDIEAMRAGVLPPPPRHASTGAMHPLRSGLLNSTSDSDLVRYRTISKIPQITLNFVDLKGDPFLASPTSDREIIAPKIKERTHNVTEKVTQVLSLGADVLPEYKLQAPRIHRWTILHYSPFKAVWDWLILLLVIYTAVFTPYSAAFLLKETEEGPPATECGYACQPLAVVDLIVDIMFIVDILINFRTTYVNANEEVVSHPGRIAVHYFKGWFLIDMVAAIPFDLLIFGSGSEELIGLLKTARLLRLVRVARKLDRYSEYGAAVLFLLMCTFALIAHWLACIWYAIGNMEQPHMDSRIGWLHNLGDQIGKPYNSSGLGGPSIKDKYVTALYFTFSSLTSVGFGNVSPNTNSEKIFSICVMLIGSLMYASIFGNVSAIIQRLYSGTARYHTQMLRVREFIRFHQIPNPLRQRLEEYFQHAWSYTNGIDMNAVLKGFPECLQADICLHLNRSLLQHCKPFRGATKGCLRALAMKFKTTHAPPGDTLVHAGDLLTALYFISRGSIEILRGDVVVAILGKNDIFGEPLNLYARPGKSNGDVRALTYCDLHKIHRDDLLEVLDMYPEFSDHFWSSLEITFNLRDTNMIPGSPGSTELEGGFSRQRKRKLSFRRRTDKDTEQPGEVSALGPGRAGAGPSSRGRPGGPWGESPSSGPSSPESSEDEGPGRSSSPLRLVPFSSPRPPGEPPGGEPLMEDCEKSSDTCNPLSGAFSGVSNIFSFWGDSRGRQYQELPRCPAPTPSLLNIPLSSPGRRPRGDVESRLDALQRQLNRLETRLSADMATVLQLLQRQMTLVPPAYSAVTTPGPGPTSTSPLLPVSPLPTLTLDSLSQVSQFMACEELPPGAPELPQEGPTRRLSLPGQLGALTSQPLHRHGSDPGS
For `COc1ccccc1NC(=O)c1ccc(S(=O)(=O)N2CCCC(C)C2)cc1` (stereo not drawn), the “hERG current change (%, negative = inhibition) at 10uM” value stood at 11.9%.

With `C[C@@H]1CC[C@]2(O[C@@H](CCO)C[C@H](O)[C@H]2O)O1`, the “hERG current change (%, negative = inhibition) at 10uM” value was determined as 11.1%.

`CC(C)CNC(=O)c1cccc(NC(=O)C(C)Oc2ccccc2)c1` (stereo not drawn): the “hERG current change (%, negative = inhibition) at 10uM” value was -18.9%.

`CC(C)C(NS(=O)(=O)c1cccc(C(F)(F)F)c1)C(=O)NCc1cccs1` (stereo not drawn): the “hERG current change (%, negative = inhibition) at 10uM” value was -16%.

`CC1CCc2nc(/C(C#N)=C/c3cccnc3)sc2C1` (stereo not drawn): the “hERG current change (%, negative = inhibition) at 10uM” value came to 7.45%.

For `CCOC(=O)c1ccc2c(c1)nc(SCC(=O)N1CCOCC1)n2CC`, the “hERG current change (%, negative = inhibition) at 10uM” value was 18.9%.

For the compound `CCCC(=O)OCC(=O)Nc1ccccc1C#N`, the “hERG current change (%, negative = inhibition) at 10uM” value was determined as 18.4%.

Consider `Cc1nn(CC(C)C(=O)N2CCN(S(=O)(=O)c3ccc(Cl)cc3)CC2)c(C)c1C` (stereo not drawn), for which the “hERG current change (%, negative = inhibition) at 10uM” value was -12.4%.

Turning to `O=C1N/C(=C/c2ccc(N3CCCC3)cc2)C(=O)N1c1ccccc1`, the “hERG current change (%, negative = inhibition) at 10uM” value is reported as 4.59%.

With `CC1=C(C)C(O)N(Cc2ccccc2)C1=O` (stereo not drawn), the “hERG current change (%, negative = inhibition) at 10uM” value came out at 22.6%.

Take `CC(=O)Nc1ccc(O)c(-c2nc3ccccc3s2)c1`: the “hERG current change (%, negative = inhibition) at 10uM” value stood at 11%.

For `CC1CC(C)(C)N2C(=O)C(=C(C#N)C#N)c3cccc1c32` (stereo not drawn), the “hERG current change (%, negative = inhibition) at 10uM” value worked out at 16.3%.

As for `O=S(=O)(c1cnc[nH]1)N1CCN(C(c2ccc(F)cc2)c2ccc(F)cc2)CC1`, the “hERG current change (%, negative = inhibition) at 10uM” value is reported as -6.49%.

As to `COc1ccc(-c2cc(C(F)(F)F)c3c(n2)sc2c(O)cc(=O)[nH]c23)c(OC)c1`, the “hERG current change (%, negative = inhibition) at 10uM” value came to 0.949%.

In the case of `Cc1ccc(Cn2ccc(NC(=O)c3nc4ncccn4n3)n2)cc1`, the “hERG current change (%, negative = inhibition) at 10uM” value is on record as -2.44%.

`COc1ccc2[nH]c(C(=O)O)c(NS(=O)(=O)c3ccc(C)c(C)c3)c2c1`: the “hERG current change (%, negative = inhibition) at 10uM” value is -18.1%.

For `CCc1nc2ccccc2c(C(=O)OC2CCCCC2=O)c1C` (stereo not drawn), the “hERG current change (%, negative = inhibition) at 10uM” value came out at 15.5%.

Regarding `CCOC(=O)c1ccccc1NC(=O)C1CC(=O)N(C(C)(C)C)C1` (stereo not drawn), the “hERG current change (%, negative = inhibition) at 10uM” value is reported as 10.7%.

For the compound `O=C(N/N=C/c1ccc(N2CCOCC2)o1)c1cccc(C(F)(F)F)c1`, the “hERG current change (%, negative = inhibition) at 10uM” value is reported as -28.5%.

Take `COc1cccc(OC)c1C(=O)Nc1nnc(C(C)C)s1`: the “hERG current change (%, negative = inhibition) at 10uM” value was -5.56%.

`CC(C)Cn1c(-c2ccccc2)nc2ccccc2c1=O`: the “hERG current change (%, negative = inhibition) at 10uM” value is -4.64%.

On to `COc1cccc(C(=O)Nc2cc(NC(=O)c3ccco3)ccc2OC)c1`, for which the “hERG current change (%, negative = inhibition) at 10uM” value is -5.19%.

Take `Cc1oc(/C=N/NC(=O)CC2(C)OCCO2)cc1Br`: the “hERG current change (%, negative = inhibition) at 10uM” value is listed as 6.93%.

Turning to `CCOC(=O)N1CCC(NC(=O)c2ccc(CS(=O)(=O)c3ccccc3C)o2)CC1`, the “hERG current change (%, negative = inhibition) at 10uM” value is on record as -26.7%.

For the compound `O=C(NCC1CCN(Cc2cccc(Cl)c2)CC1)Nc1ccc(Cl)cc1`, the “hERG current change (%, negative = inhibition) at 10uM” value is recorded as -76.2%.

As for `COc1ccc(C(NC(=O)CNC(C)=O)C(=O)Nc2ccc3c(c2)OCCO3)cc1` (stereo not drawn), the “hERG current change (%, negative = inhibition) at 10uM” value amounted to 10.2%.

In the case of `Nn1c(SCC(=O)N2CCOCC2)nnc1-c1cccnc1`, the “hERG current change (%, negative = inhibition) at 10uM” value worked out at 29.6%.

In the case of `CCCn1c(N)c(C(c2ccc(OC)cc2)N2CCN(c3ccccc3)CC2)c(=O)[nH]c1=O` (stereo not drawn), the “hERG current change (%, negative = inhibition) at 10uM” value is listed as -27.2%.

In the case of `CCN(CC)CCNC(=S)Nc1ccc2nc3n(c(=O)c2c1)CCCCC3`, the “hERG current change (%, negative = inhibition) at 10uM” value was determined as 0.152%.

Take `CC1CCN(c2c(NCc3ccc(C(=O)N4c5ccccc5CC4C)cc3)c(=O)c2=O)CC1` (stereo not drawn): the “hERG current change (%, negative = inhibition) at 10uM” value is -13%.

Turning to `CCOc1cc(CNCCc2ccc(S(N)(=O)=O)cc2)cc(Cl)c1OCc1ccccc1.Cl`, the “hERG current change (%, negative = inhibition) at 10uM” value is given as -70.7%.

Take `O=[N+]([O-])c1ccc(C(=S)N2CCN(Cc3ccccc3)CC2)cc1`: the “hERG current change (%, negative = inhibition) at 10uM” value is -57.6%.

In the case of `CCOC(=O)CN(C(=O)CSc1nnc(CNc2ccc(C)cc2C)o1)c1ccccc1`, the “hERG current change (%, negative = inhibition) at 10uM” value is on record as -5.41%.

Take `Cc1cc(C)nc(NS(=O)(=O)c2ccc(NC(=S)NC(=O)c3cccnc3)cc2)n1`: the “hERG current change (%, negative = inhibition) at 10uM” value worked out at 18%.

In the case of `Cc1cccn2c(=O)c(/C=C(\C#N)C(=O)NCc3ccco3)c(N3CCC(C(N)=O)CC3)nc12`, the “hERG current change (%, negative = inhibition) at 10uM” value was -43%.

Regarding `Cc1c(Cl)cccc1NC(=O)NCc1cccnc1`, the “hERG current change (%, negative = inhibition) at 10uM” value was 22.5%.

In the case of `CCc1ccc(NC(=O)c2cc(CC(C)C)on2)cc1`, the “hERG current change (%, negative = inhibition) at 10uM” value is reported as 6.19%.

For `CN(C)S(=O)(=O)c1ccc(N2CCCC2)c(C(=O)NCC2CCCO2)c1` (stereo not drawn), the “hERG current change (%, negative = inhibition) at 10uM” value was 23.2%.

Regarding `CCOC(=O)c1sc(NC(=O)CN2C(=O)C3CC=CCC3C2=O)nc1C` (stereo not drawn), the “hERG current change (%, negative = inhibition) at 10uM” value was 8.12%.

Consider `Cc1ccc(S(=O)(=O)N2CCN(CC(=O)N/N=C/c3cc([N+](=O)[O-])ccc3Cl)CC2)cc1`, for which the “hERG current change (%, negative = inhibition) at 10uM” value was -32.3%.

For the compound `COc1cccc(NC(=O)c2cc(-c3ccco3)nc3ccccc23)c1`, the “hERG current change (%, negative = inhibition) at 10uM” value is reported as 12.2%.

Turning to `COC(=O)c1ccccc1NC(=S)N1CCC(N2CCCCC2)CC1`, the “hERG current change (%, negative = inhibition) at 10uM” value is listed as -12.2%.

As for `Cc1ccc(-n2c(Cn3nc(C(F)F)cc3C(F)F)n[nH]c2=S)cc1`, the “hERG current change (%, negative = inhibition) at 10uM” value was 10.7%.

For `CCN1CCN(C(=O)C2CCC(CNS(=O)(=O)c3ccccc3)CC2)CC1` (stereo not drawn), the “hERG current change (%, negative = inhibition) at 10uM” value is -8.7%.

As to `O=C(C1=C[C@@H](c2ccc(C(F)(F)F)cc2)C[C@@H](OCCCCO)O1)N1CCN(Cc2ccccc2)CC1`, the “hERG current change (%, negative = inhibition) at 10uM” value is -60.6%.
